{"source": "the supplement of paper PMC8728848", "binders": {"B1": {"name": "DC-ASGPR Long (Homo sapiens) (protein)", "chain": "MTRTYENFQYLENKVKVQGFKNGPLPLQSLLQRLRSGPCHLLLSLGLGLLLLVIICVVGFQNSKFQRDLVTLRTDFSNFTSNTVAEIQALTSQGSSLEETIASLKAEVEGFKQERQAGVSELQEHTTQKAHLGHCPHCPSVCVPVHSEMLLRVQQLVQDLKKLTCQVATLNNNASTEGTCCPVNWVEHQDSCYWFSHSGMSWAEAEKYCQLKNAHLVVINSREEQNFVQKYLGSAYTWMGLSDPEGAWKWVDGTDYATGFQNWKPGQPDDWQGHGLGGGEDCAHFHPDGGWNDDVCQRPYHWVCEAGLGQTSQESH"}}, "experiment_in_all_cases": "glycan array binding signal (z-score within array); higher = stronger binding", "conditions_in_all_cases": "glycan notation: IUPAC condensed, linker removed", "key": {"Gal(b1-3)GalNAc(b1-3)Gal": {"target": "Gal(b1-3)GalNAc(b1-3)Gal", "how_it_was_run": "(§1)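 From the Consortium for Functional Glycomics database, 3228 arrays were curated, keeping only those whose protein sequence was available. Binding is given as a within-array Z-score averaged across arrays sharing a protein sequence and across linkers. Negative Z-scores can be read as non-binding.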"}, "[1]": {"target": "Gal(b1-3)GalNAc(b1-3)Gal(a1-4)Gal(b1-4)Glc", "how_it_was_run": "as §1"}, "[2]": {"target": "Gal(b1-3)GalNAc(b1-4)Gal(b1-4)Glc", "how_it_was_run": "as §1"}, "[3]": {"target": "Gal(b1-3)GalNAc(b1-4)[Neu5Ac(a2-3)]Gal(b1-4)Glc", "how_it_was_run": "as §1"}, "Gal(b1-3)GlcNAc": {"target": "Gal(b1-3)GlcNAc", "how_it_was_run": "as §1"}, "[4]": {"target": "Gal(b1-3)GlcNAc(a1-3)Gal(b1-4)GlcNAc", "how_it_was_run": "as §1"}, "[5]": {"target": "Gal(b1-3)GlcNAc(a1-6)Gal(b1-4)GlcNAc", "how_it_was_run": "as §1"}, "Gal(b1-3)GlcNAc(b1-2)Man": {"target": "Gal(b1-3)GlcNAc(b1-2)Man", "how_it_was_run": "as §1"}, "[6]": {"target": "Gal(b1-3)GlcNAc(b1-2)Man(a1-3)[Gal(b1-3)GlcNAc(b1-2)Man(a1-6)]Man(b1-4)GlcNAc(b1-4)GlcNAc", "how_it_was_run": "as §1"}, "[7]": {"target": "Gal(b1-3)GlcNAc(b1-2)Man(a1-3)[Gal(b1-3)GlcNAc(b1-2)Man(a1-6)]Man(b1-4)GlcNAc(b1-4)[Fuc(a1-6)]GlcNAc", "how_it_was_run": "as §1"}, "[8]": {"target": "Gal(b1-3)GlcNAc(b1-2)Man(a1-3)[GlcNAc(b1-4)][Gal(b1-3)GlcNAc(b1-2)Man(a1-6)]Man(b1-4)GlcNAc(b1-4)GlcNAc", "how_it_was_run": "as §1"}, "[9]": {"target": "Gal(b1-3)GlcNAc(b1-2)[Gal(b1-3)GlcNAc(b1-6)]Man(a1-6)[Gal(b1-3)GlcNAc(b1-2)Man(a1-3)]Man(b1-4)GlcNAc(b1-4)GlcNAc", "how_it_was_run": "as §1"}, "[10]": {"target": "Gal(b1-3)GlcNAc(b1-3)Gal(b1-3)GlcNAc", "how_it_was_run": "as §1"}, "[11]": {"target": "Gal(b1-3)GlcNAc(b1-3)Gal(b1-4)Glc", "how_it_was_run": "as §1"}, "[12]": {"target": "Gal(b1-3)GlcNAc(b1-3)Gal(b1-4)GlcNAc", "how_it_was_run": "as §1"}, "[13]": {"target": "Gal(b1-3)GlcNAc(b1-3)Gal(b1-4)GlcNAc(b1-2)Man(a1-3)[Gal(b1-3)GlcNAc(b1-3)Gal(b1-4)GlcNAc(b1-2)Man(a1-6)]Man(b1-4)GlcNAc(b1-4)GlcNAc", "how_it_was_run": "as §1"}, "[14]": {"target": "Gal(b1-3)GlcNAc(b1-3)Gal(b1-4)GlcNAc(b1-2)[Gal(b1-3)GlcNAc(b1-3)Gal(b1-4)GlcNAc(b1-6)]Man(a1-6)[Gal(b1-3)GlcNAc(b1-3)Gal(b1-4)GlcNAc(b1-2)Man(a1-3)]Man(b1-4)GlcNAc(b1-4)[Fuc(a1-6)]GlcNAc", "how_it_was_run": "as §1"}, "[15]": {"target": "Gal(b1-3)GlcNAc(b1-3)Gal(b1-4)GlcNAc(b1-3)Gal(b1-4)GlcNAc(b1-2)[Gal(b1-3)GlcNAc(b1-3)Gal(b1-4)GlcNAc(b1-3)Gal(b1-4)GlcNAc(b1-6)]Man(a1-6)[Gal(b1-3)GlcNAc(b1-3)Gal(b1-4)GlcNAc(b1-3)Gal(b1-4)GlcNAc(b1-2)Man(a1-3)]Man(b1-4)GlcNAc(b1-4)[Fuc(a1-6)]GlcNAc", "how_it_was_run": "as §1"}, "[16]": {"target": "Gal(b1-3)GlcNAc(b1-3)Gal(b1-4)GlcNAc(b1-6)[Gal(b1-3)GlcNAc(b1-3)]Gal(b1-4)Glc", "how_it_was_run": "as §1"}, "[17]": {"target": "Gal(b1-3)GlcNAc(b1-3)Gal(b1-4)[Fuc(a1-3)]GlcNAc", "how_it_was_run": "as §1"}, "[18]": {"target": "Gal(b1-3)GlcNAc(b1-3)Gal(b1-4)[Fuc(a1-3)]GlcNAc(b1-6)[Gal(b1-3)GlcNAc(b1-3)]Gal(b1-4)Glc", "how_it_was_run": "as §1"}, "[19]": {"target": "Gal(b1-3)GlcNAc(b1-3)GalNAc", "how_it_was_run": "as §1"}, "[20]": {"target": "Gal(b1-3)GlcNAc(b1-6)Gal(b1-4)GlcNAc", "how_it_was_run": "as §1"}, "[21]": {"target": "Gal(b1-3)GlcNAc(b1-6)GalNAc", "how_it_was_run": "as §1"}, "[22]": {"target": "Gal(b1-3)GlcNAc(b1-6)[Gal(b1-3)]GalNAc", "how_it_was_run": "as §1"}, "Gal(b1-3)GlcNAc6S": {"target": "Gal(b1-3)GlcNAc6S", "how_it_was_run": "as §1"}, "[23]": {"target": "Gal(b1-3)[Fuc(a1-4)]GlcNAc", "how_it_was_run": "as §1"}, "[24]": {"target": "Gal(b1-3)[Fuc(a1-4)]GlcNAc(b1-2)Man", "how_it_was_run": "as §1"}, "[25]": {"target": "Gal(b1-3)[Fuc(a1-4)]GlcNAc(b1-2)Man(a1-3)[Gal(b1-3)[Fuc(a1-4)]GlcNAc(b1-2)Man(a1-6)]Man(b1-4)GlcNAc(b1-4)[Fuc(a1-6)]GlcNAc", "how_it_was_run": "as §1"}, "[26]": {"target": "Gal(b1-3)[Fuc(a1-4)]GlcNAc(b1-3)Gal(b1-3)[Fuc(a1-4)]GlcNAc", "how_it_was_run": "as §1"}, "[27]": {"target": "Gal(b1-3)[Fuc(a1-4)]GlcNAc(b1-3)Gal(b1-4)[Fuc(a1-3)]GlcNAc", "how_it_was_run": "as §1"}, "[28]": {"target": "Gal(b1-3)[Fuc(a1-4)]GlcNAc(b1-6)GalNAc", "how_it_was_run": "as §1"}, "[29]": {"target": "Gal(b1-3)[GlcNAc(b1-6)]GalNAc", "how_it_was_run": "as §1"}, "[30]": {"target": "Gal(b1-3)[Neu5Ac(a2-6)]GalNAc", "how_it_was_run": "as §1"}, "[31]": {"target": "Gal(b1-3)[Neu5Ac(a2-6)]GlcNAc(b1-4)Gal(b1-4)Glc", "how_it_was_run": "as §1"}, "[32]": {"target": "Gal(b1-3)[Neu5Ac(b2-6)]GalNAc", "how_it_was_run": "as §1"}, "Gal(b1-4)Gal": {"target": "Gal(b1-4)Gal", "how_it_was_run": "as §1"}, "[33]": {"target": "Gal(b1-4)GalNAc(a1-3)[Fuc(a1-2)]Gal(b1-4)GlcNAc", "how_it_was_run": "as §1"}}, "note": "This is one part of the list."}
{"binder": "B1", "values": [{"measurement": "glycan array binding signal (z-score)", "setting": "Gal(b1-3)GalNAc(b1-3)Gal", "result": -0.38}, {"measurement": "glycan array binding signal (z-score)", "setting": "[1]", "result": 0.892}, {"measurement": "glycan array binding signal (z-score)", "setting": "[2]", "result": -0.606}, {"measurement": "glycan array binding signal (z-score)", "setting": "[3]", "result": 0.778}, {"measurement": "glycan array binding signal (z-score)", "setting": "Gal(b1-3)GlcNAc", "result": -0.053}, {"measurement": "glycan array binding signal (z-score)", "setting": "[4]", "result": 0.038}, {"measurement": "glycan array binding signal (z-score)", "setting": "[5]", "result": 0.505}, {"measurement": "glycan array binding signal (z-score)", "setting": "Gal(b1-3)GlcNAc(b1-2)Man", "result": -0.186}, {"measurement": "glycan array binding signal (z-score)", "setting": "[6]", "result": -0.257}, {"measurement": "glycan array binding signal (z-score)", "setting": "[7]", "result": -0.41}, {"measurement": "glycan array binding signal (z-score)", "setting": "[8]", "result": -0.269}, {"measurement": "glycan array binding signal (z-score)", "setting": "[9]", "result": -0.336}, {"measurement": "glycan array binding signal (z-score)", "setting": "[10]", "result": -0.372}, {"measurement": "glycan array binding signal (z-score)", "setting": "[11]", "result": -0.067}, {"measurement": "glycan array binding signal (z-score)", "setting": "[12]", "result": 0.888}, {"measurement": "glycan array binding signal (z-score)", "setting": "[13]", "result": 0.05}, {"measurement": "glycan array binding signal (z-score)", "setting": "[14]", "result": 0.579}, {"measurement": "glycan array binding signal (z-score)", "setting": "[15]", "result": 0.397}, {"measurement": "glycan array binding signal (z-score)", "setting": "[16]", "result": -0.123}, {"measurement": "glycan array binding signal (z-score)", "setting": "[17]", "result": -0.285}, {"measurement": "glycan array binding signal (z-score)", "setting": "[18]", "result": -0.888}, {"measurement": "glycan array binding signal (z-score)", "setting": "[19]", "result": -0.262}, {"measurement": "glycan array binding signal (z-score)", "setting": "[20]", "result": -0.371}, {"measurement": "glycan array binding signal (z-score)", "setting": "[21]", "result": 5.68}, {"measurement": "glycan array binding signal (z-score)", "setting": "[22]", "result": -0.373}, {"measurement": "glycan array binding signal (z-score)", "setting": "Gal(b1-3)GlcNAc6S", "result": -0.521}, {"measurement": "glycan array binding signal (z-score)", "setting": "[23]", "result": -0.18}, {"measurement": "glycan array binding signal (z-score)", "setting": "[24]", "result": -0.238}, {"measurement": "glycan array binding signal (z-score)", "setting": "[25]", "result": -0.252}, {"measurement": "glycan array binding signal (z-score)", "setting": "[26]", "result": 0.122}, {"measurement": "glycan array binding signal (z-score)", "setting": "[27]", "result": -0.126}, {"measurement": "glycan array binding signal (z-score)", "setting": "[28]", "result": 1.47}, {"measurement": "glycan array binding signal (z-score)", "setting": "[29]", "result": -0.509}, {"measurement": "glycan array binding signal (z-score)", "setting": "[30]", "result": -0.084}, {"measurement": "glycan array binding signal (z-score)", "setting": "[31]", "result": -0.32}, {"measurement": "glycan array binding signal (z-score)", "setting": "[32]", "result": 0.101}, {"measurement": "glycan array binding signal (z-score)", "setting": "Gal(b1-4)Gal", "result": -0.034}, {"measurement": "glycan array binding signal (z-score)", "setting": "[33]", "result": -0.345}]}
